# Measurements taken from the supplement of paper PMC4604168 (melanoma cell lines).
# The other results are listed elsewhere or left out. Most values come without repeats; read them as rough.
# Experiments:
# Experiment in all cases: cell count relative to DMSO control; melanoma cells; higher = more viable cells
# Conditions in all cases: library dose: standard library concentration; 72 h
# [1] = system: G361
# [2] = system: IPC-298
# [3] = system: IST-MEL1
# [4] = system: LB2518-MEL
# [5] = system: LOXIMVI
# [6] = system: MEL-HO
# [7] = system: MZ2-MEL
# [8] = system: MeWo
# [9] = system: RPMI7951
# [10] = system: RVH-421
# [11] = system: SkMel28
# [12] = system: SkMel2
# [13] = system: SkMel30
# [14] = system: SkMel5
# [15] = system: UACC257
# [16] = system: UACC62
# [17] = system: WM115
# [18] = system: WM1716
# [19] = system: WM3526
# [20] = system: WM1745
# 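Also: cells treated in 1,536-well plates, then fixed and DAPI-stained, with nuclei counted from automated high-throughput microscope images.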
SMILES,cell count [1] [%],cell count [2] [%],cell count [3] [%],cell count [4] [%],cell count [5] [%],cell count [6] [%],cell count [7] [%],cell count [8] [%],cell count [9] [%],cell count [10] [%],cell count [11] [%],cell count [12] [%],cell count [13] [%],cell count [14] [%],cell count [15] [%],cell count [16] [%],cell count [17] [%],cell count [18] [%],cell count [19] [%],cell count [20] [%]
"Clc1ccc(Nc2nnc(Cc3ccncc3)c3ccccc23)cc1 [vatalanib] + Oc1nc(-c2ccc(C(F)(F)F)cc2)nc2c1CSCC2 [XAV939] (first compound 10 µM, partner dose 10 µM)",68.7,78.9,88.6,64.1,85.9,55.1,64.1,57.5,61.3,66.6,72.5,74,106,65.8,80.1,78.8,92.1,66.3,76.8,–
"Clc1ccc(Nc2nnc(Cc3ccncc3)c3ccccc23)cc1 [vatalanib] + N#Cc1c(O)c2c(-c3ccc(-c4ccccc4O)cc3)csc2[nH]c1=O [A769662] (first compound 10 µM, partner dose 10 µM)",87.1,86.3,83.3,84.3,86.9,79.5,90.4,70.7,80.6,16,80.6,86,82.4,73.6,82.7,82.5,84.2,85.6,87.2,–
"OCc1c[nH]c2ccccc12 [Indole-3-carbinol] + O=C(O)C(=O)Nc1sc2c(c1C(=O)O)CCNC2 [TCS401] (first compound 4 µM, partner dose 8.33333 µM)",88.2,101,97.4,87.2,118,94.5,91.2,132,109,112,66.6,98.6,115,82.8,90.6,100,87.2,108,88.8,–
"OCc1c[nH]c2ccccc12 [Indole-3-carbinol] + CCc1ccc(CCOc2ccc(CC3SC(=O)NC3=O)cc2)nc1 [pioglitazone] (first compound 4 µM, partner dose 10 µM)",93.2,84.4,90.3,108,104,87.6,77.9,83.2,93.5,77.2,76.9,102,86.8,84.5,91.1,118,75.9,86.5,85.5,–
"OCc1c[nH]c2ccccc12 [Indole-3-carbinol] + Clc1ccc(Nc2nnc(Cc3ccncc3)c3ccccc23)cc1 [vatalanib] (first compound 4 µM, partner dose 10 µM)",74.1,82.9,78,–,74.2,58.1,–,74.3,91,66.9,88.6,88.5,96.6,53.8,72,81.4,78.2,91.8,84.2,65.4
"OCc1c[nH]c2ccccc12 [Indole-3-carbinol] + Cn1cc(/C=C2\C(=O)Nc3cccnc32)c2ccccc21 [GW441756] (first compound 4 µM, partner dose 2 µM)",113,95,96,93.2,104,114,94.3,88.4,104,107,85.4,106,89.2,62.5,88.2,69.5,111,99.5,97.9,–
"Clc1ccc(Nc2nnc(Cc3ccncc3)c3ccccc23)cc1 [vatalanib] + COc1cc(Nc2ncc(F)c(Nc3ccc4c(n3)NC(=O)C(C)(C)O4)n2)cc(OC)c1OC [Tamatinib] (first compound 10 µM, partner dose 2 µM)",49.3,68.8,37,–,16.8,43.4,–,60.9,14,77,79.3,73.8,89.1,40.7,50.4,65.2,71.4,61.8,66.4,29.5
"C#Cc1cccc(Nc2ncnc3cc(OCCOC)c(OCCOC)cc23)c1 [erlotinib] + COc1ccc(Cl)c(Nc2nc3ccccc3nc2NS(=O)(=O)c2cccc(NC(=O)C(C)(C)N)c2)c1 [XL147] (first compound 4 µM, partner dose 4 µM)",75.6,61.5,78.4,–,118,80.3,–,70,95,77.7,64,87.7,66.8,54.7,90.3,53.4,77.9,83.7,68.5,60.3
"Clc1ccc(Nc2nnc(Cc3ccncc3)c3ccccc23)cc1 [vatalanib] + COc1cc2ncnc(Nc3ccc(Oc4ccccc4)cc3)c2cc1OC [SrcI1] (first compound 10 µM, partner dose 10 µM)",30.1,53.4,63.5,127,58.2,64.5,41.5,48.4,32.1,81.3,53.6,78.8,67.2,39.3,71.4,56.9,67.2,70.8,42.3,–
"OCc1c[nH]c2ccccc12 [Indole-3-carbinol] + NCC(=O)Nc1ccc(-n2nc(C(F)(F)F)cc2-c2ccc3c(ccc4ccccc43)c2)cc1 [OSU03012] (first compound 4 µM, partner dose 5 µM)",78.5,69.8,88.6,–,80.9,72.5,–,88.8,85.7,101,19.4,–,45.9,38.2,72.6,73.3,91.4,87.7,47.8,79.3
"O=C(CCCCCCC(=O)Nc1ccccc1)NO [vorinostat] + OCCn1cc(-c2cnc3nnn(Cc4ccc5ncccc5c4)c3n2)cn1 [PF04217903] (first compound 0.4 µM, partner dose 5 µM)",80.3,92.4,93.2,–,71.6,92.8,–,92.3,63.2,92.1,79.7,89.6,93.3,91,62.5,82.4,102,102,69.7,96.9
"Clc1ccc(Nc2nnc(Cc3ccncc3)c3ccccc23)cc1 [vatalanib] + O=C1NC(=O)/C(=C/c2ccc(-c3ccc(F)cc3O)o2)S1 [AS252424] (first compound 10 µM, partner dose 5 µM)",63.6,71.7,83.8,99.6,66.8,64.1,82.4,70.4,77.7,84,82.6,69.9,94.9,68.2,72.7,129,93.6,95.4,68.3,–
"Clc1ccc(Nc2nnc(Cc3ccncc3)c3ccccc23)cc1 [vatalanib] + CCc1ccc(CCOc2ccc(CC3SC(=O)NC3=O)cc2)nc1 [pioglitazone] (first compound 10 µM, partner dose 10 µM)",66.4,69.7,78.4,99.6,90.3,57.5,60.5,58.8,77.7,79.2,69.2,75.3,94.1,78,67.3,74,81.9,76.2,79.3,–
"Clc1ccc(Nc2nnc(Cc3ccncc3)c3ccccc23)cc1 [vatalanib] + Cn1cc(/C=C2\C(=O)Nc3cccnc32)c2ccccc21 [GW441756] (first compound 10 µM, partner dose 2 µM)",76.6,65.7,81.6,67,83.2,65.2,64,60.6,71.1,86.9,67.5,77,75.9,65.1,46.9,72.9,90.4,109,79.1,–
"OCc1c[nH]c2ccccc12 [Indole-3-carbinol] + COc1ccc(COc2ccc(Cc3cnc(N)nc3N)cc2OC)cc1 [GW2580] (first compound 4 µM, partner dose 5 µM)",108,88.5,85.9,92.9,97.2,93.6,86.5,77.8,93.6,80.9,98.2,106,81.6,78.5,80.7,91.1,96.6,97.6,116,–
"O=C(CCCCCCC(=O)Nc1ccccc1)NO [vorinostat] + Cc1ccc(NC(=O)c2cccc(N(C)C)c2)cc1NC(=O)c1ccc(O)cc1 [ZM336372] (first compound 0.4 µM, partner dose 10 µM)",77.2,86.7,93.3,–,105,90.1,–,76.7,70,107,66.1,88.4,74.9,83,67.5,73.3,66.3,100,89.5,66
"COCC[n+]1c2c(n(Cc3cnccn3)c1C)C(=O)c1ccccc1C2=O + CN(C)S(=O)(=O)c1ccc2c(c1)/C(=C/c1cc3c([nH]1)CCCC3)C(=O)N2 [SU6656] (first compound 0.002 µM, partner dose 2 µM)",61.4,47,41.4,–,74.6,76.9,–,57.5,40.2,68.5,41.8,–,61.5,52.9,28.4,72.2,37.7,45.5,52.5,53.8
"Clc1ccc(Nc2nnc(Cc3ccncc3)c3ccccc23)cc1 [vatalanib] + COC(=O)c1sccc1S(=O)(=O)Nc1ccc(Nc2ccccc2)cc1OC [GSK0660] (first compound 10 µM, partner dose 5 µM)",64.8,50.4,85.8,73.2,177,59.1,46.1,62,92.7,85.2,68.5,72.4,83.9,63.6,55.6,74.9,82.2,95.1,73.9,–
"OCc1c[nH]c2ccccc12 [Indole-3-carbinol] + c1cc(-c2cnn3cc(-c4ccc(OCCN5CCCCC5)cc4)cnc23)ccn1 [Dorsomorphin] (first compound 4 µM, partner dose 2 µM)",72.3,95.6,100,82.1,91,87,69.7,80.3,83.9,103,89.6,104,109,67.9,68.5,82.1,85.7,92.2,94,–
